Where “and” joins values, the source holds several entries; their conditions need not be identical. Identical values can stand only once. The list shows a part of the results. These are further read-outs of the screen, such as a control signal, another cell line or another target. No call is given for them.

The results in this text go back to PubChem BioAssay AID1745853 (National Center for Advancing Translational Sciences (NCATS), 2022).

Holding throughout (experiment): Primary Screen for Target Class Profiling of Small Molecule Inhibitors of Methyltransferases
Assay [1] addresses Glycine N-methyltransferase (Homo sapiens) (UniProt Q14749). The note with it: purified enzyme, MTase-Glo SAH luminescence; measured here: GNMT inhibition; at 40 µM; stronger effect = lower value. The procedure, abridged:
(§1)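 Each enzyme was reacted with SAM and its substrate, with compounds tested once at 40 uM; SAH formed was read by MTase-Glo luminescence.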

Assay [2] has as its target Guanidinoacetate N-methyltransferase (Homo sapiens) (UniProt Q14353). As to conditions: purified enzyme, MTase-Glo SAH luminescence; measured here: GAMT inhibition; at 40 µM; stronger effect = lower value. The procedure, abridged:
as §1

The target in assay [3] is Histamine N-methyltransferase (Homo sapiens) (UniProt P50135). The note with it: purified enzyme, MTase-Glo SAH luminescence; measured here: HNMT inhibition; at 40 µM; stronger effect = lower value. The procedure, abridged: as §1
Assay [4] addresses Nicotinamide N-methyltransferase (Homo sapiens) (UniProt P40261). As to conditions: purified enzyme, MTase-Glo SAH luminescence; measured here: NNMT inhibition; at 40 µM; stronger effect = lower value. The procedure, abridged: as §1
The target of assay [5] is Phenylethanolamine N-methyltransferase (Homo sapiens) (UniProt P11086). As to conditions: purified enzyme, MTase-Glo SAH luminescence; measured here: PNMT inhibition; at 40 µM; stronger effect = lower value. The procedure, abridged: as §1
% is scaled to controls: 0 for no effect and ±100 for the full control effect.

On to `Cc1ccc([C@@H]2CN(C(=O)c3ccco3)[C@@H]3C4CCN(CC4)[C@@H]32)cc1`, for which the activity change, negative = inhibition in assay [1] was -6.51%; in assay [2] it was -8.14%; in assay [3], -2.9%; in assay [4], -15.9%; in assay [5], -1.38%.

Consider `Cc1ccc(NC(=O)N2Cc3ccccc3-n3cccc3C2c2ccc(Cl)cc2)cc1C` (stereo not drawn), for which the activity change, negative = inhibition in assay [1] amounted to 0%; in assay [2] it was 0%; in assay [3], 1.38%; in assay [4] it was 2.73%; in assay [5] it was 4.58%.

Consider `CN(C)c1ccc(C2c3cccn3-c3ccccc3CN2C(=O)Nc2ccc(F)cc2F)cc1` (stereo not drawn), for which the activity change, negative = inhibition in assay [1] is 4.17%; in assay [2], 0%; in assay [3], -10%; in assay [4], -4.58%; in assay [5] it was 1.44%.

In the case of `CCOc1ccccc1NC(=O)N1Cc2ccccc2-n2cccc2C1c1ccccc1Cl` (stereo not drawn), the activity change, negative = inhibition in assay [1] was found to be 9.11%; in assay [2], 0%; in assay [3] it was 4.22%; in assay [4], 0.217%; in assay [5] it was 5.64%.

In the case of `CSc1ccc(C2c3cccn3-c3ccccc3CN2C(=O)NCc2ccc(C)cc2)cc1` (stereo not drawn), the activity change, negative = inhibition in assay [1] was -0.618%; in assay [2], 0%; in assay [3] it was -0.121%; in assay [4], 7.07%; in assay [5] it was 7.16%.

As for `COc1ccc(C2c3cccn3-c3ccccc3CN2C(=O)NCCc2ccccc2)cc1OC` (stereo not drawn), the activity change, negative = inhibition in assay [1] came out at 10.2%; in assay [2], 0%; in assay [3], 1.42%; in assay [4] it was 6.49%; in assay [5], 7.38%.

As to `CCC1c2cccn2-c2ccccc2CN1C(=O)Nc1cc(Cl)ccc1C(=O)OC` (stereo not drawn), the activity change, negative = inhibition in assay [1] was -3.61%; in assay [2] it was 0%; in assay [3], 3.28%; in assay [4], 3%; in assay [5], 4.97%.

As for `CC1c2cccn2-c2ccccc2CN1C(=O)Nc1ccc(Br)cc1F` (stereo not drawn), the activity change, negative = inhibition is 7.31% in assay [1]; 3.28% in assay [2]; -2.08% in assay [3]; -5.91% in assay [4]; 1.08% in assay [5].

Regarding `COc1ccc(C2c3cccn3-c3ccccc3CN2C(=O)Nc2ccccc2F)cc1` (stereo not drawn), the activity change, negative = inhibition in assay [1] is 4.15%; in assay [2], 0%; in assay [3], -2.86%; in assay [4], -6.31%; in assay [5], 1.47%.

As to `O=C(Nc1cc(F)ccc1F)N1Cc2ccccc2-n2cccc2C1c1cccs1` (stereo not drawn), the activity change, negative = inhibition stood at 6.68% in assay [1]; 0% in assay [2]; 3.28% in assay [3]; 0.974% in assay [4]; 6.67% in assay [5].

On to `COC(=O)c1ccccc1NC(=O)N1Cc2ccccc2-n2cccc2C1c1ccc(SC)cc1` (stereo not drawn), for which the activity change, negative = inhibition in assay [1] turned out to be 1.28%; in assay [2] it was 5.1%; in assay [3], 8.23%; in assay [4], 7.49%; in assay [5], 7.72%.

Take `Cc1c(N2C(=O)[C@@H]3[C@H](O)CCN3C2=O)ccc(C#N)c1Cl`: the activity change, negative = inhibition is 4.42% in assay [1]; 8.48% in assay [2]; 10.5% in assay [3]; -6.4% in assay [4]; 3.82% in assay [5].

Turning to `Cc1ccc(NC(=O)N2Cc3ccccc3-n3cccc3C2c2cccs2)c(C)c1` (stereo not drawn), the activity change, negative = inhibition in assay [1] is 3.61%; in assay [2], 0%; in assay [3] it was -0.634%; in assay [4] it was -1.29%; in assay [5], 2.23%.

Regarding `S=C(NC1CCCCC1)N1CCC(c2cnc[nH]2)CC1`, the activity change, negative = inhibition in assay [1] was 1.11% and 0.866%; in assay [2], 6.38% and 11.3%; in assay [3], 9.66% and 21.1%; in assay [4] it was -7.75% and -4.37%; in assay [5], -1.31% and 0.99%.

As to `COc1cc(NC(=O)N2Cc3ccccc3-n3cccc3C2C)cc(OC)c1` (stereo not drawn), the activity change, negative = inhibition in assay [1] is 2.53%; in assay [2], 1.17%; in assay [3] it was 0.641%; in assay [4], -0.906%; in assay [5] it was 5.29%.

In the case of `COc1ccc(C2c3cccn3-c3ccccc3CN2C(=O)NCc2ccco2)cc1OC` (stereo not drawn), the activity change, negative = inhibition in assay [1] was 3.58%; in assay [2] it was 4.53%; in assay [3], -5.4%; in assay [4], -6.21%; in assay [5] it was -0.066%.

For `CC[C@H]1C[C@H]2[C@@H]3CCC4=CC(=O)CC[C@@H]4[C@H]3CC[C@]2(C)[C@H]1O`, the activity change, negative = inhibition is -7.84% in assay [1]; 4.31% in assay [2]; 8.34% in assay [3]; -9.47% in assay [4]; 1.08% in assay [5].

As to `COCCCNC(=O)N1Cc2ccccc2-n2cccc2C1c1cccc(C)c1` (stereo not drawn), the activity change, negative = inhibition in assay [1] was 5.91%; in assay [2], 2.98%; in assay [3], 1.01%; in assay [4], -2.73%; in assay [5] it was 0.98%.

Take `NC(=O)[C@@H](CC1CC1)[C@@H](CCC(F)(F)F)C(=O)N[C@H]1N=C(c2ccccc2)c2cccc(F)c2NC1=O`: the activity change, negative = inhibition in assay [1] is -1.58%; in assay [2] it was -3.03%; in assay [3], 5.48%; in assay [4], -14.5%; in assay [5], -0.781%.

On to `O=C(Nc1ccc(Cl)cc1)N1Cc2ccccc2-n2cccc2C1c1ccc(F)cc1` (stereo not drawn), for which the activity change, negative = inhibition in assay [1] was -1.35%; in assay [2], 5.09%; in assay [3], -0.391%; in assay [4], -4.56%; in assay [5], 1.01%.

Regarding `COc1cccc(CNC(=O)N2Cc3ccccc3-n3cccc3C2c2ccccc2Cl)c1` (stereo not drawn), the activity change, negative = inhibition in assay [1] was 2.91%; in assay [2], 1.08%; in assay [3] it was -0.979%; in assay [4], -1.23%; in assay [5], 0.227%.

Turning to `C[N+]1(CC2CC2)CC[C@]23c4c5ccc(O)c4O[C@H]2C(=O)CC[C@@]3(O)[C@H]1C5` (stereo partly drawn), the activity change, negative = inhibition in assay [2] is 6.15%; in assay [4] it was -6.45%; in assay [5] it was 0.754%.

As for `COC1CC(O[C@H]2CC[C@]3(C)C4CC[C@]5(C)[C@@H](C6=CC(=O)OC6)[C@@H](OC(C)=O)C[C@]5(O)C4CC[C@@H]3C2)OC(C)C1O` (stereo partly drawn), the activity change, negative = inhibition in assay [1] is -0.818%; in assay [2], 3.4%; in assay [3] it was -2.25%; in assay [4], -5.58%; in assay [5], -1.79%.

Turning to `CC(=O)N(C)c1cccc(-c2ccnc3c(C(=O)c4cccs4)cnn23)c1`, the activity change, negative = inhibition in assay [1] is -2.25%; in assay [2], 2.64%; in assay [3], 7.72%; in assay [4] it was -19.2%; in assay [5] it was 0.81%.

For the compound `COc1ccc(NC(=O)N2Cc3ccccc3-n3cccc3C2c2ccccc2C)cc1OC` (stereo not drawn), the activity change, negative = inhibition in assay [1] was 7.11%; in assay [2], 4.19%; in assay [3], 5.41%; in assay [4], 4.68%; in assay [5], 3.22%.

In the case of `COc1ccc(C2c3cccn3-c3ccccc3CN2C(=O)Nc2ccc(F)c(Cl)c2)cc1` (stereo not drawn), the activity change, negative = inhibition in assay [1] worked out at 7.58%; in assay [2] it was 1.34%; in assay [3], 2.57%; in assay [4] it was 2.92%; in assay [5], 5.91%.

Take `N#Cc1cccc(NC(=O)NC[C@H]2C[C@@H]3CCN2C[C@@H]3CN2CCN(c3ccccn3)CC2)c1`: the activity change, negative = inhibition in assay [1] was -22.8%; in assay [2], 0.844%; in assay [3], -20.7%; in assay [4] it was -0.45%; in assay [5] it was -0.157%.

For `NC(N)=NOCC[C@H](N)C(=O)O`, the activity change, negative = inhibition was -12.2% in assay [1]; -0.331% in assay [2]; -2.29% in assay [3]; -6.73% in assay [4]; 4.96% in assay [5].

Consider `N[C@@H](Cn1oc(=O)[nH]c1=O)C(=O)O`, for which the activity change, negative = inhibition in assay [1] was -11.2%; in assay [2], 1.32%; in assay [3], -2.23%; in assay [4] it was -4.53%; in assay [5], 4.17%.

For the compound `C/C=C(\C)C(=O)O[C@H]1[C@H](OC(C)=O)[C@]2(CO)[C@H](O)[C@H](O)[C@]3(C)C(=CCC4[C@@]5(C)CC[C@H](O[C@@H]6O[C@H](C(=O)O)[C@@H](O)[C@H](O[C@@H]7OC[C@H](O)[C@H](O[C@@H]8OC[C@H](O)[C@H](O)[C@H]8O)[C@H]7O)[C@H]6O[C@@H]6O[C@H](CO)[C@@H](O)[C@H](O)[C@H]6O)C(C)(C)C5CC[C@]43C)[C@@H]2CC1(C)C` (stereo partly drawn), the activity change, negative = inhibition is 2.04% in assay [1]; 4.61% in assay [2]; 6.05% in assay [3]; -6.09% in assay [4]; 7.86% in assay [5].
